The supplement of paper PMC10928670
MIC of N. gonorrhoeae strains collected 1971-2005, agar dilution (CLSI M07); ranges 0.03-64 mg/L (penicillin, azithromycin), 0.015-1 (cefixime, ceftriaxone), 0.5-256 (spectinomycin); higher = less susceptible. No active / inactive call per row; the paper counts cefixime and ceftriaxone above 0.25 and azithromycin above 1 mg/L as non-susceptible. The source says 'penicillin'; penicillin G is assumed. Isolates are numbered anew.

Columns and labels:
Assay in all cases: Agar dilution by CLSI M07.
cefixime = compound: C=CC1=C(C(=O)O)N2C(=O)[C@@H](NC(=O)/C(=N\OCC(=O)O)c3csc(N)n3)[C@H]2SC1 [cefixime]
penicillin G = compound: CC1(C)S[C@@H]2[C@H](NC(=O)Cc3ccccc3)C(=O)N2[C@H]1C(=O)O [penicillin G]
azithromycin = compound: CC[C@H]1OC(=O)[C@H](C)[C@@H](O[C@H]2C[C@@](C)(OC)[C@@H](O)[C@H](C)O2)[C@H](C)[C@@H](O[C@@H]2O[C@H](C)C[C@H](N(C)C)[C@H]2O)[C@](C)(O)C[C@@H](C)CN(C)[C@H](C)[C@@H](O)[C@]1(C)O [azithromycin]
spectinomycin = compound: CN[C@@H]1[C@H](O)[C@H](NC)[C@H]2O[C@@]3(O)C(=O)C[C@@H](C)O[C@H]3O[C@@H]2[C@H]1O [spectinomycin]
ceftriaxone = compound: CO/N=C(\C(=O)N[C@@H]1C(=O)N2C(C(=O)O)=C(CSc3nc(=O)c(O)nn3C)CS[C@H]12)c1csc(N)n1 [ceftriaxone]

With “Neisseria gonorrhoeae isolate 33 (GyrA: S91F, D95G, ParC: Wild type, mtrR: -35A Del, penA: Type XIII NonMosaic, A501V, A517G, ponA: L421P, porB: G120K, A121D)” the MIC (cefixime) was 0.25 µg/mL, the MIC (penicillin G) was 2 µg/mL and the MIC (azithromycin) was 0.125 µg/mL. The MIC (spectinomycin) was 64 µg/mL and the MIC (ceftriaxone) was 0.25 µg/mL.

“Neisseria gonorrhoeae isolate 34 (GyrA: Wild type, ParC: Wild type, mtrR: G45D, penA: Type I NonMosaic, ponA: Wild type, porB: G120D)” was tested, and the MIC (cefixime) was no more than 0.015 µg/mL, the MIC (penicillin G) was 0.125 µg/mL and the MIC (azithromycin) was 0.25 µg/mL. The MIC (spectinomycin) was 16 µg/mL and the MIC (ceftriaxone) was no more than 0.015 µg/mL.

For “Neisseria gonorrhoeae isolate 35 (GyrA: Wild type, ParC: Wild type, mtrR: Wild type, penA: Type I NonMosaic, ponA: Wild type, porB: Wild type)”, the MIC (cefixime) was no more than 0.015 µg/mL, the MIC (penicillin G) was 0.25 µg/mL and the MIC (azithromycin) was 0.125 µg/mL. The MIC (spectinomycin) was 16 µg/mL and the MIC (ceftriaxone) was no more than 0.015 µg/mL.

“Neisseria gonorrhoeae isolate 36 (GyrA: Wild type, ParC: Wild type, mtrR: -35A Del, G45D, penA: Type II NonMosaic, A517G, ponA: L421P, porB: G120K, A121D)” was tested, and the MIC (cefixime) was no more than 0.015 µg/mL, the MIC (penicillin G) was greater than 64 µg/mL and the MIC (azithromycin) was 0.25 µg/mL. For the same test system, the MIC (spectinomycin) was 16 µg/mL and the MIC (ceftriaxone) was no more than 0.015 µg/mL.

For “Neisseria gonorrhoeae isolate 37 (GyrA: Wild type, ParC: Wild type, mtrR: Wild type, penA: Type I NonMosaic, ponA: Wild type, porB: Wild type)”, the MIC (cefixime) was no more than 0.015 µg/mL, the MIC (penicillin G) was 0.125 µg/mL and the MIC (azithromycin) was 0.125 µg/mL. The MIC (spectinomycin) was 32 µg/mL and the MIC (ceftriaxone) was no more than 0.015 µg/mL.

In the case of “Neisseria gonorrhoeae isolate 38 (GyrA: Wild type, ParC: Wild type, mtrR: Wild type, penA: WT NonMosaic, ponA: Wild type, porB: porB1a)”, the MIC (cefixime) is reported as no more than 0.015 µg/mL, the MIC (penicillin G) is reported as no more than 0.03 µg/mL and the MIC (azithromycin) is reported as 0.25 µg/mL. It also gave an MIC (spectinomycin) of 32 µg/mL and an MIC (ceftriaxone) of no more than 0.015 µg/mL.

Test System “Neisseria gonorrhoeae isolate 39 (GyrA: S91F, D95G, ParC: Wild type, mtrR: -35A Del, penA: Type V Nonmosaic, A517G, G543S, ponA: L421P, porB: Wild type)” has an MIC (cefixime) of no more than 0.015 µg/mL, an MIC (penicillin G) of 1 µg/mL and an MIC (azithromycin) of 0.25 µg/mL. The MIC (spectinomycin) was 32 µg/mL and the MIC (ceftriaxone) was no more than 0.015 µg/mL.

“Neisseria gonorrhoeae isolate 40 (GyrA: Wild type, ParC: Wild type, mtrR: A39T, penA: Type II NonMosaic, A517G, ponA: Wild type, porB: Wild type)” showed an MIC (cefixime) of no more than 0.015 µg/mL, an MIC (penicillin G) of 0.25 µg/mL and an MIC (azithromycin) of 0.125 µg/mL. For the same test system, the MIC (spectinomycin) was 32 µg/mL and the MIC (ceftriaxone) was no more than 0.015 µg/mL.

With “Neisseria gonorrhoeae isolate 41 (GyrA: S91F, D95G, ParC: Wild type, mtrR: -35A Del, penA: Type V Nonmosaic, A517G, G543S, ponA: L421P, porB: G120K, A121D)” the MIC (cefixime) was no more than 0.015 µg/mL, the MIC (penicillin G) was 2 µg/mL and the MIC (azithromycin) was 0.25 µg/mL. For the same test system, the MIC (spectinomycin) was 16 µg/mL and the MIC (ceftriaxone) was 0.03 µg/mL.

With “Neisseria gonorrhoeae isolate 42 (GyrA: S91F, D95G, ParC: Wild type, mtrR: G45D, penA: Type IV NonMosaic, A517G, G543S, ponA: L421P, porB: G120K, A121D)” the MIC (cefixime) was no more than 0.015 µg/mL, the MIC (penicillin G) was 1 µg/mL and the MIC (azithromycin) was 0.25 µg/mL. The MIC (spectinomycin) was 16 µg/mL and the MIC (ceftriaxone) was 0.03 µg/mL.

For “Neisseria gonorrhoeae isolate 43 (GyrA: S91F, D95G, ParC: Wild type, mtrR: -35A Del, penA: Type XIII NonMosaic, A501V, A517G, ponA: L421P, porB: G120K, A121D)”, the MIC (cefixime) was 0.5 µg/mL, the MIC (penicillin G) was 4 µg/mL and the MIC (azithromycin) was 0.25 µg/mL. For the same test system, the MIC (spectinomycin) was 16 µg/mL and the MIC (ceftriaxone) was 0.25 µg/mL.

Work on “Neisseria gonorrhoeae isolate 44 (GyrA: Wild type, ParC: Wild type, mtrR: G45D, penA: Type XXI NonMosaic, A501V, A517G, ponA: L421P, porB: G120K, A121D)” yielded an MIC (cefixime) of 0.03 µg/mL, an MIC (penicillin G) of 0.5 µg/mL and an MIC (azithromycin) of 0.125 µg/mL. The MIC (spectinomycin) was 16 µg/mL and the MIC (ceftriaxone) was 0.03 µg/mL.

Work on “Neisseria gonorrhoeae isolate 45 (GyrA: Wild type, ParC: Wild type, mtrR: G45D, penA: Type XXII NonMosaic, A517G, ponA: Wild type, porB: Wild type)” yielded an MIC (cefixime) of no more than 0.015 µg/mL, an MIC (penicillin G) of 0.25 µg/mL and an MIC (azithromycin) of 0.06 µg/mL. It also gave an MIC (spectinomycin) of 8 µg/mL and an MIC (ceftriaxone) of no more than 0.015 µg/mL.

Work on “Neisseria gonorrhoeae isolate 46 (GyrA: Wild type, ParC: Wild type, mtrR: Wild type, penA: Type II NonMosaic, A517G, ponA: Wild type, porB: G120K, A121D)” yielded an MIC (cefixime) of no more than 0.015 µg/mL, an MIC (penicillin G) of 2 µg/mL and an MIC (azithromycin) of 0.125 µg/mL. For the same test system, the MIC (spectinomycin) was 16 µg/mL and the MIC (ceftriaxone) was no more than 0.015 µg/mL.

For “Neisseria gonorrhoeae isolate 47 (GyrA: S91F, D95N, ParC: S88P, mtrR: -35A Del, G45D, penA: Type X Mosaic, N513Y, ponA: L421P, porB: G120K, A121D)”, the MIC (cefixime) was 0.5 µg/mL, the MIC (penicillin G) was 4 µg/mL and the MIC (azithromycin) was 0.25 µg/mL. For the same test system, the MIC (spectinomycin) was 32 µg/mL and the MIC (ceftriaxone) was 0.125 µg/mL.

“Neisseria gonorrhoeae isolate 48 (GyrA: D95N, ParC: Wild type, mtrR: -35A Del, G45D, penA: Type II NonMosaic, A517G, ponA: Wild type, porB: G120K, A121D)” gave an MIC (cefixime) of no more than 0.015 µg/mL, an MIC (penicillin G) greater than 64 µg/mL and an MIC (azithromycin) of 0.25 µg/mL. It also gave an MIC (spectinomycin) of 32 µg/mL and an MIC (ceftriaxone) of no more than 0.015 µg/mL.
